In the assay the target is P-Rex2 (WT), recombinant full-length (UniProt Q70Z35 1-1606). As to the kind of experiment: SPR. A general note: In SPR one partner is held on a chip, and binding of the other changes the refractive index at the surface.

B1: Gβγ (Gβ1 and His-Gγ2 (C68S)) (complex)
chain 1: not shown
chain 2: not shown
Regarding B1, the Kd was found to be 100 nM.

For orientation: Kd means a measure of binding affinity in units of concentration.

The values are drawn from article doi:10.1101/2020.04.11.036434 (bioRxiv, 2020).
